# Reference: PMC4336329 (PLoS ONE, 2015)
# Among all 310,000 compounds or so, about 2,200 (0.71%) showed an effect of 50% or more. The effect is printed as a negative number. The list shows a part of the results.
# Biological target: human ether-à-go-go-related gene (hERG) potassium channel (human, UniProt Q12809)
# Test: primary screen, population patch clamp on CHO cells stably expressing hERG
# Chain of human ether-à-go-go-related gene (hERG) potassium channel (Q12809 whole entry, looked up): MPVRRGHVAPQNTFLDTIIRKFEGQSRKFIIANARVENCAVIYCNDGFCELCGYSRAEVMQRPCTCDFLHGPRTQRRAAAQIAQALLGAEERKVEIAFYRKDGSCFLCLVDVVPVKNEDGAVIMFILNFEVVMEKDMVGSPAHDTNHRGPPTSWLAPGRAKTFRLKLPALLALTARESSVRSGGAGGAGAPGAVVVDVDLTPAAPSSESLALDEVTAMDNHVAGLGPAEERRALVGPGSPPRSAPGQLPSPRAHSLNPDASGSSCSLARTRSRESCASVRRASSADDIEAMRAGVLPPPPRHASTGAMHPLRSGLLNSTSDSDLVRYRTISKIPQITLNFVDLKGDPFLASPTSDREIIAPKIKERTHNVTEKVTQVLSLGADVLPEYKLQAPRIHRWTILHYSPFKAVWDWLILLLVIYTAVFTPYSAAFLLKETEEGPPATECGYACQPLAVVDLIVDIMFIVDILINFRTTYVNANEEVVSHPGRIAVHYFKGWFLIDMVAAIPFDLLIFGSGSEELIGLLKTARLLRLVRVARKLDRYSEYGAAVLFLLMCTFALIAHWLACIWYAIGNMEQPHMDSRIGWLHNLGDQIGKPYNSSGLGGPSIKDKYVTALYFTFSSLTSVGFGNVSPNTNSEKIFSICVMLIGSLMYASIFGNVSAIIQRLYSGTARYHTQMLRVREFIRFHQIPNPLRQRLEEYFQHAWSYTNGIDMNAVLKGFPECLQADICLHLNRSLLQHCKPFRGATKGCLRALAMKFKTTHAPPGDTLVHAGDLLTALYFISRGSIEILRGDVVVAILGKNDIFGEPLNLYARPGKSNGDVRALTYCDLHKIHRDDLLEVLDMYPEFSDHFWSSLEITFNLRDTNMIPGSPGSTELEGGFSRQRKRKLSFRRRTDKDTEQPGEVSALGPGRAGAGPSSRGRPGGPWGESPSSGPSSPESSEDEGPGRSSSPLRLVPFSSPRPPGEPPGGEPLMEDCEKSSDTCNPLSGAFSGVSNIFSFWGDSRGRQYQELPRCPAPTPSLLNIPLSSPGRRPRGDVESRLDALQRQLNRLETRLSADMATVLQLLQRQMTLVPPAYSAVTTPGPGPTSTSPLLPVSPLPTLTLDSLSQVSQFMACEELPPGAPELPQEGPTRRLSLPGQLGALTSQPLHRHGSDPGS
row,SMILES,"hERG current change (%, negative = inhibition) at 1uM [%]"
1,CCCc1cc(=O)n2nc(N3CCC(C(=O)Nc4cccc(C(C)=O)c4)CC3)sc2n1,-1.65
2,CCOC(=O)c1ccc(Oc2nc(N(C)C)nc(N(C)C)n2)cc1,15.1
3,N#Cc1nc(COc2ccccc2Cl)oc1N1CCCC1,6.25
4,CCCCCCCSc1nc(N)cc(=O)[nH]1,8.02
5,CCN(CC)Cc1c(O)ccc2cc(-c3nc4ccccc4n3C)c(=O)oc12,16.6
6,COC(=O)N/C(C)=C1/NC(=O)c2ccccc2C(c2ccccc2)N1 (stereo not drawn),3.84
7,O=C(O)C(CCCCN1C(=O)C2C3C=CC(C3)C2C1=O)N1C(=O)C2C3C=CC(C3)C2C1=O (stereo not drawn),2.95
8,NC(=O)NC(=O)CSc1nc2sc(-c3ccccc3)cc2c(=O)n1-c1ccccc1,2.78
9,COCc1[nH][nH]c(=O)c1C=Nc1ccc(Oc2ccccc2)cc1,-0.135
10,O=C(NC1CCCc2ccccc21)C1CCN(C(=O)c2sccc2-n2cccc2)CC1 (stereo not drawn),6.11
11,CCOc1ccc(C(=O)NCCN2CCCC2)cc1.Cl,-6.97
12,CCCOc1ccc(C(=O)Nc2ccc(N3CCN(C(C)=O)CC3)cc2)cc1,5.22
13,Cc1ccc(C(=O)c2c[nH]c(C(=O)NCc3cccnc3)c2)cc1,-5.59
14,COc1ccc(N2CCC(CNC(=O)Nc3ccc(Cl)cc3)C2)cc1 (stereo not drawn),10.9
15,Cc1ccc(NC(=O)/C=N/OCC(=O)NCc2ccccc2Cl)cc1,6.66
16,COc1cc(CNC(=O)CCCC(=O)c2ccccc2)cc(OC)c1OC,15.2
17,CCN(Cc1ccncc1)C(=O)CCc1nnc(CCc2ccccc2OC)o1,12.6
18,N#Cc1c(N)oc(-c2ccc3c(c2)OCO3)c1-c1ccc2c(c1)OCO2,-4.76
19,O=C(CSc1n[nH]c(=O)n1-c1ccccc1)Nc1ccccc1,8.54
20,CCCCCn1c(=O)c(C(=O)Nc2ccccn2)c(O)c2ccccc21,19.6
21,CCOc1cc(C2NC(=O)NC(C)=C2C(=O)OCc2ccccc2)ccc1O (stereo not drawn),11.8
22,O=C(OCC(=O)N1CCCC1=O)c1ncc(Cl)c(Cl)c1Cl,10.2
23,CCN(CC)S(=O)(=O)c1ccc(N2CCOCC2)c(NC(=O)c2ccc(C#N)cc2)c1,-11.2
24,CC(C)N(C(=O)Cn1cc(SCC(=O)NCC2CCCO2)c2ccccc21)C(C)C (stereo not drawn),-14.8
